The results in this text go back to PubChem BioAssay AID1508624 (National Center for Advancing Translational Sciences (NCATS), 2021).

SMILES strings stand for the structures. Screen size: about 48,000 compounds; about 120 (0.25%) were called active. About 4% were inconclusive and are not listed. Calls come from the whole dose curve; as a rule, active = well fitted activation curve with a large enough effect; inconclusive = small, poorly fitted or top-dose-only effect, or another doubt; inactive = no such curve, though single readings can be large or run the other way. This is one part of the list.

This assay in a line: Primary qHTS for Identification of Small Molecule Activators of Huntingtin-Antisense Promoter Activity. Note: nearly all actives have a fitted effect of over 55% in size. The note with it: HEK293 HTT-AS promoter firefly luciferase reporter, 24 h; series mostly up to 57.5 µM; activity change, positive = activation: at the top concentration. The method, boiled down: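 Firefly luciferase signal from promoter-reporter HEK293 cells was scaled between vehicle (0%) and zero RLU (-100%). Compounds were tested at final concentrations of up to 57.5 uM over 24 h at 37 degrees C. PTC124 at 50 uM final served as control inhibitor.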
Take `Cc1ccccc1Nc1c(-c2ccsc2)nc2c(C)cccn12`: the “activity change, positive = activation” value was inactive: -8.57%. In the case of `COc1ccc(OC)c(S(=O)(=O)N2Cc3ccccc3CC2C(=O)Nc2ccc(C(C)=O)cc2)c1` (centres undefined), the “activity change, positive = activation” value is inactive: -20.7%. `Cc1cccc(C2N3CC4(C(C)C)CN2CC(C(C)C)(C3)C4=O)c1` (centres undefined): the “activity change, positive = activation” value was inactive: -9.1%.

On to `Cc1ccc(-n2ncc(C(=O)NCc3cccs3)c2C2CCN(C(=O)OC(C)(C)C)CC2)cc1C`, for which the “activity change, positive = activation” value was inactive: -39.3%. Consider `CCC(Cn1nnc2ccccc2c1=O)NC(=O)Nc1cc(Cl)ccc1OC` (centres undefined), for which the “activity change, positive = activation” value was inactive: -19.8%. Turning to `Cc1cccc(Cn2c(CNS(=O)(=O)c3ccc(Cl)s3)nc3cccnc32)c1`, the “activity change, positive = activation” value is inactive: -22%. `CCOc1ccc(-c2cc3c(=O)n(CC(=O)Nc4c(C)cccc4C)ccn3n2)cc1`: the “activity change, positive = activation” value is inactive: 4.38%. Regarding `Cc1ccc2[nH]c(CSc3nnc(NC(=O)COc4ccccc4F)s3)cc(=O)c2c1`, the “activity change, positive = activation” value is inactive: -34.6%.

With `Cn1c(=O)oc2cc(S(=O)(=O)NCCC(=O)Nc3ccc(F)c(Cl)c3)ccc21`, the “activity change, positive = activation” value is inactive: -13.1%. Then `CC(C)CN(CCNC(=O)c1cc(=O)[nH]c2ccc(S(=O)(=O)N3CCCCCC3)cc12)CC(C)C`, with inactive: -12%; and `Cc1ccc(Cl)cc1NC(=O)/C(C#N)=C/c1c(C)n(Cc2ccccc2)c2ccccc12`, with inactive: 4.79% [at 11.5 µM, percent change from vehicle, -100% = no light]. For the molecule `Fc1ccc(-c2csc(-c3nc(-c4ccc(Br)s4)cs3)n2)cc1`, the “activity change, positive = activation” value is inactive: -6.23%.

As to `CCOc1ccc(NC(=O)CCCN2C(=O)C(c3ccccc3)Oc3cccnc32)cc1` (centres undefined), the “activity change, positive = activation” value is inactive: -16.9%. For the molecule `CS(=O)(=O)c1ncc(N(Cc2ccccc2)Cc2ccco2)c(C(=O)Nc2cccc(C(F)(F)F)c2)n1`, the “activity change, positive = activation” value was inactive: -19%.

Consider `CCOC(=O)c1c(NC(=O)c2cc(-c3ccccc3)on2)sc2c1CCCC2`, for which the “activity change, positive = activation” value is inactive: 19.6%.

As for `CC(C)Cn1c(=O)c2sccc2n2c(CCCC(=O)Nc3ccc(Cl)cc3)nnc12`, the “activity change, positive = activation” value was inactive: -15.9%. On to `Cc1cc(C)c(NC(=O)CSc2nc(=O)n(Cc3ccco3)c3c2CCC3)c(C)c1`, for which the “activity change, positive = activation” value was inactive: -23.2%. On to `O=C(NCCc1ccc(Cl)cc1)c1ccc2nc(Cc3ccccc3)oc2c1`, for which the “activity change, positive = activation” value is inactive: -18.1%. `COc1cccc(-c2nc(SCc3cc(=O)c4cc(Cl)ccc4[nH]3)n[nH]2)c1`: the “activity change, positive = activation” value is inactive: -18.9%. Then `COc1ccc2c(Sc3ccccc3)c(C(=O)NCCN(C)C)[nH]c2c1`, with inactive: -23.5%. `Cc1cc2c(cc1S(=O)(=O)Nc1cccc(C(F)(F)F)c1)OCCN2C`: the “activity change, positive = activation” value was inactive: -25.5%.

In the case of `CCOc1ccc(-c2nonc2NC(=O)c2ccccc2C)cc1`, the “activity change, positive = activation” value is inactive: -26.4%. With `CC(C)Oc1ccc(CNC(=O)Cc2ccc(NC(=O)N3CCSc4ncccc43)cc2)cc1`, the “activity change, positive = activation” value is inactive: -18.9%. Regarding `Cc1ccc2c(c1)c(=O)c(S(=O)(=O)c1ccc(F)cc1)cn2CC(=O)Nc1ccc2c(c1)OCO2`, the “activity change, positive = activation” value was inactive: -11.9%. For the molecule `Cc1ccc(Cl)cc1NC(=O)NC1COc2ccccc2C1` (centres undefined), the “activity change, positive = activation” value was inactive: -14.7%. On to `O=C(Cc1ccc(Cl)cc1)Nc1ccc2oc(-c3ccccc3)nc2c1`, for which the “activity change, positive = activation” value is inactive: 21.5%. For the molecule `CCN(CC)C(=O)c1sc2c(c1C)c(=O)n(-c1ccc(C)c(C)c1)c(=O)n2CC(=O)Nc1ccc(F)cc1`, the “activity change, positive = activation” value is inactive: -24.7%.

Consider `CC(C)(C)C1CCc2c(sc(NC(=O)c3ccccc3F)c2C(=O)N2CCCCC2)C1` (centres undefined), for which the “activity change, positive = activation” value was inactive: -24.2%. Take `CCOc1cc(C#N)c(NC(=O)c2ccc(OC)c(S(=O)(=O)N3CCCC3)c2)cc1OCC`: the “activity change, positive = activation” value was inactive: -7.96%. As to `O=S(=O)(c1ccccc1)c1nc(-c2ccc(F)cc2)oc1N1CCOCC1`, the “activity change, positive = activation” value is inactive: 7.03%.

On to `O=C(c1nc(-c2ccc(Cl)cc2)n2c1CCCCC2)N1CCN(c2ccc(F)cc2)CC1`, for which the “activity change, positive = activation” value was inactive: -25.9%.

Regarding `CCCOc1ccc(OC(=O)c2sc3ncn(Cc4cccc(F)c4)c(=O)c3c2C)cc1`, the “activity change, positive = activation” value is inactive: -3.79%.

With `COc1ccccc1NC(=O)N(Cc1ccco1)C1CCN(C(C)=O)CC1`, the “activity change, positive = activation” value is inactive: -12%. As to `Cc1ccc(NC(=O)c2ccc3nc(Cc4ccccc4)oc3c2)cc1F`, the “activity change, positive = activation” value is inactive: -14.1%. As for `CCCCN(C)CCNC(=O)Cn1ncc2c3ccccc3n(CCC)c2c1=O`, the “activity change, positive = activation” value was inactive: -21.5%.

`Cc1cccc(-c2noc(CN(C(=O)c3ccc(C)c(C)c3)C(C)C)n2)c1`: the “activity change, positive = activation” value is inactive: -27.5%. Turning to `COc1ccc(C)cc1N(C)C(=O)c1sc2nc3n(c(=O)c2c1C)CCCCC3`, the “activity change, positive = activation” value was inactive: 0.213%.

`Cc1csc2nc(-c3cccc(NC(=O)c4cccc(F)c4)c3)cn12`: the “activity change, positive = activation” value was inactive: -6.17%. As for `O=C(CS(=O)Cc1ccco1)NC/C=C\COc1cc(CN2CCCCC2)ccn1` (centres undefined), the “activity change, positive = activation” value is inactive: 1.93%. Then `CCCCCn1c(=O)[nH]c2cc(C(=O)NCc3ccc(C)cc3)ccc2c1=O`, with inactive: -8.38%; and `CCOc1ccc(CCNC(=O)C2=C(C)C(=O)OC23CCC(C)CC3)cc1OCC` (centres undefined), with inactive: -2.97%; and `COc1cccc(NC(=O)CSc2nc(-c3ccccc3)nc3c2Cc2cc(Cl)ccc2O3)c1`, with inactive: -5.37%. With `Cc1ccc(C(=O)c2oc3ccccc3c2NC(=O)c2nc(S(C)(=O)=O)ncc2Cl)cc1F`, the “activity change, positive = activation” value is inactive: 6.58%. Regarding `Cc1ccc(C)c(NC(=O)c2cc(S(=O)(=O)NCCC3=CCCCC3)ccc2F)c1`, the “activity change, positive = activation” value was inactive: -27.7%. Regarding `COc1ccc2c(c1)CCc1c(C(=O)Nc3c(C)nn(Cc4ccc(C)cc4)c3C)noc1-2`, the “activity change, positive = activation” value was inactive: -46.9%.

As for `COc1ccc(CNC(=O)C(C(C)C)N2Cc3ccccc3C2=O)cc1` (centres undefined), the “activity change, positive = activation” value is inactive: -11.6%. `CCCN(CCC)C(=O)C1CCN(c2ncnc3c2nc2n3CCCCC2)CC1`: the “activity change, positive = activation” value is inactive: -2.63%.

For `CCOc1ccc(CCNC(=O)CN(c2ccc(C)cc2)S(=O)(=O)N(C)C)cc1OCC`, the “activity change, positive = activation” value was inactive: -17.6%. In the case of `O=c1c(S(=O)(=O)c2ccccc2)cn(Cc2ccc(F)cc2)c2cc(N3CCCCC3)c(F)cc12`, the “activity change, positive = activation” value is inactive: -11.2%. With `CC1Cn2cc(C(=O)Nc3cccc(C(F)(F)F)c3)c(=O)c3c(Cl)ccc(c32)O1` (centres undefined), the “activity change, positive = activation” value was inactive: -4.48%. Under `COC(=O)c1nnn(CC(=O)Nc2ccc(Br)c(C)c2)c1N` stands inactive: 23.8%; under `Cc1ccc(-c2onc(C)c2C)cc1S(=O)(=O)NC1CCCCC1`, inactive: -46.5%.

For the molecule `C[C@H]1C[C@@H]2[C@H]([C@@H](O)C[C@@]3(C)[C@H]2CC[C@]3(O)C(=O)CO)[C@@]2(C)C=CC(=O)C=C12`, the “activity change, positive = activation” value is inactive: -4.02%. As for `Cc1ccc(-n2c(=O)c3c(c4cc(C)ccc4n3C)n(CC(=O)Nc3cc(C)cc(C)c3)c2=O)cc1`, the “activity change, positive = activation” value was inactive: -1.31%. With `COc1ccc(NC(=O)c2ccc(COc3ccccc3OC)o2)cc1OC`, the “activity change, positive = activation” value is inactive: 16%. With `CCn1cc(C(=O)NCc2ccccc2)c(=O)c2cc(S(=O)(=O)N3CCCCCC3)ccc21`, the “activity change, positive = activation” value was inactive: -15.9%.

Turning to `COc1cccc(CNC(=O)CCC(=O)N2Cc3cccc(OC)c3Oc3ncccc32)c1OC`, the “activity change, positive = activation” value was inactive: -24.2%. Turning to `CCCNC(=O)CCc1c(C)nc2nc(-c3cc(OC)cc(OC)c3)nn2c1C`, the “activity change, positive = activation” value is inactive: -22.6%. As to `Cc1ccc(OCc2nc3ccccc3n2Cc2ccccc2Cl)cc1`, the “activity change, positive = activation” value was inactive: -16.3%.
